# Experimental data: ChEMBL document CHEMBL1157539, “Thousands of chemical starting points for antimalarial lead identification” (Nature, 2010)
# Over roughly 13,000 compounds, “IFI” has its median near 4; the highest 2% begin near 17. The list shows a part of the results.
# Assay: GSK_TCMDC: Inhibition Frequency Index (IFI). The number of non-kinase HTS assays where a compound showed > 50 % inhibition, expressed as a percentage of the number of such assays in which the compound was tested (-0 is zero)
# Assay type: functional
row,SMILES,IFI [%]
1,O=C(Nc1ccc2c(c1)CCN(C1CCC1)CC2)c1ccc(-c2cn3ccccc3n2)cc1,2.86
2,COc1c(C2CCN(CCN3CCC(CNC(=O)c4ccc(-c5ccc(C#N)cc5)cc4)CC3)CC2)ccc2c1CCCC2,16.2
3,CCCN(CCC)C(=O)c1cc(C(=O)N[C@@H](Cc2ccccc2)[C@H](O)CNCc2cccc(C(F)(F)F)c2)cc(N2CCCCS2(=O)=O)c1,2.19
4,CC(C)n1cc(CN2CCCC(C(=O)Nc3cccc(-c4cc5ccccc5[nH]4)c3)C2)cn1 (stereo not drawn),9.3
5,COc1ccc(NC(=O)/C=C/c2cc(Br)ccc2F)cc1OCCN(C(C)C)C(C)C,2.34
6,Oc1ccc2ccccc2c1CNC1CCCCCC1,1.49
7,O=C(Nc1ccc(Cl)c(Cl)c1)Nc1ccc2nccc(N3CCNCC3)c2c1,8.21
8,c1ccc(CN2CCC(NCc3ccccc3-c3ccc(CNC4CCCC4)cc3)CC2)cc1,5.84
9,CC(=O)Nc1cccc(-c2cn(-c3ccc(OCc4cccc(F)c4)c(Cl)c3)c3ncncc23)c1,1.42
10,Cc1nc(-c2cccc(C(=O)N(Cc3cncn3Cc3cccc(C(F)(F)F)c3)CC3CC3)c2)cs1,9.21
11,c1cc(CNCCc2ccncc2)cc(-c2ccc(-c3nc4ccccc4[nH]3)cc2)c1,9.9
12,CCOCCCn1c(=N)c(C(=O)NCc2ccc(F)cc2)cc2c(=O)n3cccc(C)c3nc21,2.17
13,CC(NC(=O)c1ccc(O)c(-c2ccc(Cl)c(Cl)c2)c1)C(=O)NCCN1CCCCC1 (stereo not drawn),1.48
14,CS(=O)(=O)c1ccccc1CNC(=O)c1ccc(-c2ccc(-c3nc4cc(C(F)(F)F)ccc4[nH]3)s2)cc1,5.71
15,COc1cccc(C(=O)N2CCOC(CCN3CCC(c4ccccc4)CC3)(c3ccc(Cl)c(Cl)c3)C2)c1 (stereo not drawn),5.48
16,CS(=O)(=O)NCCCNCc1cccc(-c2csc(-c3nc4ccccc4[nH]3)c2)c1,2
17,COc1ccc2nccc(N3CCC(NCCNCc4cc5c(cn4)OCCO5)C3)c2n1 (stereo not drawn),-0
18,COc1ccc(C(=O)Nc2cc(Cl)c3c(c2)C2CCCN2CC3)cc1C(F)(F)F (stereo not drawn),7.19
19,Cc1cc(N[C@@H](C)C(=O)Nc2ccccc2)nc(NCCc2ccc(F)cc2)n1,4.55
20,C=CCOC(=O)N1CCC(CNCc2cccc(-c3ccc(-c4nc5cc(C(F)(F)F)ccc5[nH]4)cc3)c2)C1 (stereo not drawn),9
21,CCNc1cc(C(=O)N[C@@H](Cc2ccccc2)[C@H](O)CNC(C)C)cc(N2CC(c3ccccc3)CCS2(=O)=O)c1 (stereo partly drawn),0.74
22,Cc1cc2nc(-c3ccc(C(=O)NCc4cccc(F)c4)cc3)[nH]c2cc1C,0.76

row,SMILES,IFI [%]
1,N=C(N)NN=Cc1c2ccccc2c(Cl)c2cc(Cl)ccc12,5.67
2,COc1ccc(CNC2CCN(C)CC2)cc1-c1ccc(S(=O)(=O)NCC2CCCO2)s1 (stereo not drawn),1.98
3,COc1ccc2[nH]c(C)cc(=NN=Cc3cc(OC)c(OC)cc3OC)c2c1,1.33
4,C(=Cc1ccccc1)C=NN=c1cc[nH]c2ccccc12,2.1
5,CCOc1cc(C(=O)N[C@@H](Cc2ccccc2)[C@H](O)CNCc2cc(OC)cc(OC)c2)cc(N2CCCCS2(=O)=O)c1,5.97
6,CN1CCN(c2nc(NCCNc3ccc([N+](=O)[O-])cc3)c3ccccc3n2)CC1,8.93
7,CN(C)CCCOc1ccc(CNCc2cccc(Oc3ccc(Cl)cc3)c2)cc1,9.33
8,CC(C)COc1ccc2ccccc2c1CNCCCCCCNCc1c(OCC(C)C)ccc2ccccc12,22.9
9,CC(C)COc1ccc(Cl)cc1Cc1ccc(-c2nc3ccc(Cl)cc3[nH]2)o1,19.1
10,CN(C)c1ccc(C(c2ccc(N(C)C)cc2)c2cc([N+](=O)[O-])ccc2Cl)cc1,1.47
11,CCCN(Cc1nnc(-c2cccs2)o1)C(=O)CSc1nnnn1-c1cc(C)cc(C)c1,4.23
12,CN(C)CCCOc1ccc(CN2CC[C@H](NC(=O)c3ccc(Cl)c(Cl)c3)C2)c2ccccc12,8
13,COc1cc(Br)c(NC(=O)Nc2ccc(C(F)(F)F)c(O[C@@H]3CCN(C)C3)c2)cc1OC,3.08
14,CS(=O)(=O)c1ccc(CCNCc2ccc(-c3ccc(CN(C(=O)c4ccco4)C4CCN(Cc5ccccc5)CC4)cc3)nc2)cc1,5.63
15,COc1ccc(N2CCN(CCCCNC(=O)c3ccc(NC(=O)c4cccc(Cl)c4)cc3)CC2)c(OC)c1,3.57
16,CC[C@H](NC(=O)c1c(CN2CCC(N3CCCCC3)CC2)c(-c2ccccc2)nc2cc(O)ccc12)c1ccccc1,1.43
17,Cc1nc2c(c(C)nn2C(C)(C)C)c(C)c1CCC(=O)Nc1ccc(CN2CCCC2)cc1,2.83
18,NC(=O)C1Cc2ccccc2CN1CC(=O)Nc1ccccc1Sc1ccccc1 (stereo not drawn),-0
19,Brc1cc2c(cc1C=NNc1nc(=Nc3ccccc3)[nH]c(=Nc3ccccc3)[nH]1)OCO2,2.21
20,COc1cc(C(=O)N2CCOC(CCN3CCc4c(c5ccccc5n4C)C3)(c3ccc(Cl)c(Cl)c3)C2)cc(OC)c1OC (stereo not drawn),8.16
21,CC(C)Sc1ccc(Cl)cc1CON1C(=N)N=C(N)NC1(C)C,7.52
22,Cc1cc(=NN=Cc2cccc(Cl)c2)c2cc(F)ccc2[nH]1,-0

row,SMILES,IFI [%]
1,COc1cc(OCCCCCCON2C(=N)N=C(N)NC2(C)C)cc(OC)c1OC,5.04
2,CCCC(C)Nc1nc(C)cc(N[C@@H](CC(C)C)C(=O)NCc2ccc(C)cc2)n1 (stereo partly drawn),17.1
3,Cc1cccc2nc(-c3cccc(-c4ccc(NC(=O)C(C)CN5CCN(C)CC5)cc4)c3)[nH]c12 (stereo not drawn),2.75
4,COc1ccc2nc(C)cc(Nc3ccc(Oc4ccc5ccccc5c4)c(Cl)c3)c2c1,5.93
5,COc1ccc2nccc([C@H](O)CN3CCC(NCc4nc5cccc(F)c5[nH]4)CC3)c2c1,2.27
6,COc1cc(-c2cc3cc(Cl)c(Cl)cc3[nH]2)ccc1C(=O)NCCC1CCCN1C (stereo not drawn),4.96
7,O=C(NC1CCN(c2ccc(F)cc2[N+](=O)[O-])CC1)c1cccs1,-0
8,COc1cc(F)c2ncc(Cl)c(CCN3CCC(NCc4ccc5c(n4)NC(=O)CS5)CC3)c2c1,5.04
9,COc1cccc2cc(C(=O)N[C@@H](CC(C)C)C(=O)NC(/C=N/NC(=O)c3ccccc3)CCc3ccccc3)oc12 (stereo partly drawn),5.36
10,CCC(CC)(Cc1ccccc1)NC(=O)[C@H](Cc1ccc(OC)c(OC)c1)Nc1ccc(C#N)c2ccccc12,0.94
11,CC(C)C[C@H](NC(=O)c1cccc(F)c1)C(=O)N[C@H](/C=N/NC(=O)c1ccccc1)CCc1ccccc1,5.41
12,O=C(/C=C/c1ccc(Cl)c(Cl)c1)N1CCN(C(=O)Nc2ccc(F)c(Cl)c2)CC1,15.2
13,O=c1c2c([nH]c3cc(Cl)ccc13)CCCC2,0
14,O=S(=O)(Nc1cccc(CCN2CCC(N3CCCCC3)CC2)c1)c1ccc(Oc2ccccc2)nc1,1.59
15,O=C(NC1CCC(N2CCC(c3nc4ccccc4s3)CC2)CC1)c1cc2ccccc2[nH]1 (stereo not drawn),5.88
16,CCCOc1cc(O)c(-c2[nH]nc(C)c2Oc2ccccc2)cc1CC,2.96
17,CCOc1cc2c(cc1OCC)C(c1ccc(O)c(Cl)c1)NCC2 (stereo not drawn),2.25
18,CC(C)Cn1c(Sc2ccc(C#N)c([N+](=O)[O-])c2)nnc1-c1ccccc1,2.82
19,COc1cc(Cn2ccc3c4c(N)nc(N)nc4ccc32)cc(OC)c1OC,4.23
20,COc1ccc2nc(C)cc(Nc3ccc(Oc4ccc(Br)c5ccccc45)c(Cl)c3)c2c1,8.47
21,Cc1cc(NCCc2ccccc2)nc(N/C(=N/CC(=O)OC(C)(C)C)Nc2ccc(C(F)(F)F)cc2)n1,4.55
22,O=C(NCCCN1CCOCC1)c1csc(Nc2ccc(Cl)c(Cl)c2)n1,0.69

row,SMILES,IFI [%]
1,c1ccc2sc(Sc3ncnc4sccc34)nc2c1,4.88
2,CN1CCCN(Cc2ccc(-c3cccc(NC(=O)c4cccc(F)c4)c3)cc2)CC1,2.94
3,Cc1ccc(C(=O)Nc2ccc(Nc3ccnc4cc(-c5nccs5)ccc34)cc2O)cc1,9.66
4,Cc1cc(O)nc(NC#N)n1,0
5,Cc1cc(Nc2ccc(Cl)cc2)n2nc(C(F)(F)F)nc2n1,1.98
6,Cc1cccc2nc(-c3ccc(-c4cccc(NC(=O)NCc5ccc(F)cc5)c4)cc3)[nH]c12,10.2
7,O=C1OC2(CN1CC1CCN(Cc3ccc(O)cc3Cl)C1)c1ccccc1-c1ccccc12 (stereo not drawn),9.23
8,COc1cc(NC(=O)/C=C/c2ccccc2OC(F)(F)F)cc(OCCN2CCN(CCN3CCOCC3)CC2)c1,0.72
9,O=C(NCCCCN1CCN(c2nsc3ccccc23)CC1)c1ccccc1C(=O)NCCCCN1CCN(c2nsc3ccccc23)CC1,6.87
10,Fc1cc(Cl)ccc1Nc1ccnc2cc(-c3ccc(CN4CCSCC4)o3)ccc12,6.43
11,COc1ccc(NC(=O)Nc2ccc(-c3cccc(-c4nc5ccccc5[nH]4)c3)cc2)cc1,3.03
12,CC1(C)NC(N)=NC(=N)N1OCCSCCON1C(=N)N=C(N)NC1(C)C,1.43
13,CC(C)(C)Nc1nc(Nc2cccc([N+](=O)[O-])c2)nc(-n2ccnc2)n1,2.84
14,O=S(=O)(NCCN1CCCC1)c1ccc(-c2cccc(CNC3Cc4ccccc4C3)c2)s1,7.02
15,COC(=O)c1cc(OC2CCOC2=O)cc2c1OC(C)(C)O2 (stereo not drawn),2.29
16,COc1cc2c(cc1S(=O)(=O)c1ccc(NC(=O)c3cccc(C(F)(F)F)c3)cc1)CCN(C)CC2,3.51
17,O=c1nc(NCCCNCc2cc3c(Cl)cc(Cl)cc3[nH]2)[nH]c2ccsc12,12.8
18,Nc1c(I)cc(C(=O)Nc2ccc3nc4c(c(N)c3c2)CCCC4)cc1I,22.8
19,N#Cc1ccc(-c2ccc(C(=O)NCCCCN3CCC(c4ccc5c(c4OCC(N)=O)CCCC5)CC3)nc2)cc1,3.1
20,O=C(/C=C/c1ccc(F)cc1)NC1CCC(CCN2CCc3ccccc3CC2)CC1 (stereo not drawn),6.06
21,Cc1ccc(O)c(C(=O)c2cnc3c(c2)c(-c2ccc(F)cc2)c(C#N)c(=O)n3C)c1,4.31
22,CCNC(=O)N1CCN(c2nc(-c3ccccc3)nc(COC)c2Cc2ccc(C)cc2)CC1,-0
